Some of the results follow. Further columns of the screen follow, without active or inactive calls.
Experiments:
Assay in all cases: Primary Screen for Target Class Profiling of Small Molecule Inhibitors of Methyltransferases
[1] = molecular target: Glycine N-methyltransferase (Homo sapiens) (UniProt Q14749); settings: purified enzyme, MTase-Glo SAH luminescence; measured here: GNMT inhibition; at 40 µM; stronger effect = lower value
Method in brief: (§1)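 Each enzyme was reacted with SAM and its substrate, with compounds tested once at 40 uM; SAH formed was read by MTase-Glo luminescence.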

[2] = molecular target: Guanidinoacetate N-methyltransferase (Homo sapiens) (UniProt Q14353); settings: purified enzyme, MTase-Glo SAH luminescence; measured here: GAMT inhibition; at 40 µM; stronger effect = lower value
Method in brief: as §1

[3] = molecular target: Histamine N-methyltransferase (Homo sapiens) (UniProt P50135); settings: purified enzyme, MTase-Glo SAH luminescence; measured here: HNMT inhibition; at 40 µM; stronger effect = lower value
Method in brief: as §1

[4] = molecular target: Nicotinamide N-methyltransferase (Homo sapiens) (UniProt P40261); settings: purified enzyme, MTase-Glo SAH luminescence; measured here: NNMT inhibition; at 40 µM; stronger effect = lower value
Method in brief: as §1

[5] = molecular target: Phenylethanolamine N-methyltransferase (Homo sapiens) (UniProt P11086); settings: purified enzyme, MTase-Glo SAH luminescence; measured here: PNMT inhibition; at 40 µM; stronger effect = lower value
Method in brief: as §1
On the % scale 0 is the no-effect control and ±100 the full control effect.

Row | SMILES | activity change, negative = inhibition [1] | activity change, negative = inhibition [2] | activity change, negative = inhibition [3] | activity change, negative = inhibition [4] | activity change, negative = inhibition [5]
1 | CCCCS(=O)(=O)N1C[C@@H](C(N)=O)[C@H](C2CCN(C)CC2)C1 | -0.952% | -0.032% | 0.633% | -1.85% | -0.525%
2 | Cc1ccccc1C(C(=O)NC1CCCCC1)N(C(=O)Cn1ccnc1C)c1cccc(F)c1 (stereo not drawn) | 2.17% | 5.57% | 5.49% | -13.3% | -3.19%
3 | Cc1ncc2n1C(=O)N(C1CCN(Cc3ccc(F)cc3)CC1)C2 | -4.47% | -1.29% | -3.88% | -3% | -1.3%
4 | CC[C@H](C)/C=C(C)/C=C/C1=CC2=CC(=O)[C@]3(C)OC(=O)[C@@H](C(C)=O)[C@@H]3C2=CO1 | -3.02% | 3.13% | 0.76% | -12.7% | 3.19%
5 | CC1(C(=O)NC2CCCCCC2)Cn2c(ccc2-c2ccccc2)C(=O)N1Cc1ccccc1 (stereo not drawn) | 1.37% | 0.658% | -1.62% | -6.89% | -2.62%
6 | Cc1cn2cc(C(=O)N(C)CCO)cc(NC3CCOc4cccc(C)c43)c2n1 (stereo not drawn) | -8.52% | -7.66% | 0.044% | -21% | -4.01%
7 | CC(C)NC(=O)c1nsc(C(=O)NCc2ccncc2)c1N | 14.6% | 1.53% | 12.6% | 5.3% | 6.04%
8 | CC(=O)Nc1c2n(c3ccc(F)cc13)CC(C)(C(=O)NC1CCCC1)N(CCC(C)C)C2=O (stereo not drawn) | 4.64% | 0% | 6.04% | 9.34% | -0.025%
9 | COc1ccccc1CNC(=O)C1(C)Cn2c(cc3ccccc32)C(=O)N1CCc1ccccc1 (stereo not drawn) | 4.13% | 0.738% | 6.24% | 9.79% | 1.99%
10 | O=C(O)c1cc2c(s1)CCN(C(=O)c1ccc(F)cc1)C2 | 1.15% | -1.56% | 1.49% | 3.73% | 2.58%
11 | CCC(C)C(=O)OC1CC(C)C=C2C=CC(C)C(CCC(O)CC(O)CC(=O)O)C21 (stereo not drawn) | 1.15% | 0.311% | 9.38% | -13.5% | -8.56%
12 | O=C(CCc1nnc2n(Cc3ccc(Cl)cc3)c(=O)c3ccccc3n12)N1CCOCC1 | -3.71% | 0.23% | 7.57% | 1.21% | 0.454%
13 | COC(=O)c1ncn2c1C(=O)N(Cc1cccc(OC)c1)C(C)(C(=O)NC1CCCC1)C2 (stereo not drawn) | -6.61% | -0.557% | -1.76% | -2.58% | -3.79%
14 | CC(C)CNC(=O)c1ccc2c(=O)n(CC(C)C)c3nn(CC(=O)NC4CCCC4)c(=O)n3c2c1 | 3.87% | 3.84% | 6.53% | -4.49% | -2.24%
15 | C/C=C(\C)C(=O)OC[C@H]1O[C@@H](O[C@H]2[C@@H](O[C@H]3O[C@H](COC(=O)/C(C)=C/C)[C@@H](O)[C@H](O)[C@H]3O[C@@H]3O[C@H](CO)[C@@H](O)[C@H](OC(=O)/C(C)=C/C)[C@H]3O)O[C@H](COC(=O)/C(C)=C/C)[C@@H](O)[C@@H]2O)[C@H](O)[C@@H](O)[C@@H]1O | -2.15% | -4.03% | 0.71% | -11.7% | -0.858%
16 | O=C(c1nc2c(o1)CCN(Cc1cccc(F)c1)CC2)N1CCOCC1 | -5.07% | -3.22% | -0.903% | -5.39% | -8.27%
17 | COCCc1nncn1C1CCN(C(=O)c2ccc(C)s2)CC1 | -2.64% | -6.5% | -1.27% | -11.5% | -7.74%
18 | O=C(NCCc1ccccc1)N1CC(c2noc(C3CCCN3CC3CC3)n2)C1 (stereo not drawn) | -2.48% | 1.06% | -1.03% | 3.14% | 4.06%
19 | COc1ccc(CN2C(=O)c3cc(C(C)(C)C)nn3CC2(C)C(=O)NC2CCCCCC2)cc1 (stereo not drawn) | -0.514% | 2.88% | 1.98% | -12.7% | 0.175%
20 | c1cc(NC2CCNCC2)nc(-c2cnc3ccccn23)c1 | -0.19% | -1.38% | -7.28% | -74.4% | -14.5%

Row | SMILES | activity change, negative = inhibition [1] | activity change, negative = inhibition [2] | activity change, negative = inhibition [3] | activity change, negative = inhibition [4] | activity change, negative = inhibition [5]
21 | Cc1ccc2c(c1)c1c3n2CCN(CC(O)CNC(C)C)C3CCC1 (stereo not drawn) | -2.79% | 3.53% | -6.44% | 4.26% | -8.61%
22 | CC1(C(=O)NC2CCCCC2)Cn2c(cc3ccccc32)C(=O)N1C1CCCCCC1 (stereo not drawn) | 0.232% | 0% | -0.69% | 3.23% | -1.16%
23 | CC1(C)C[C@H](O)C[C@@]2(C)[C@H]1[C@H](O)C=C1COC(=O)[C@@]12O | 0% | -4.13% | 0.68% | -17% | 1.97%
24 | Cc1cc(Cl)ccc1NC(=O)c1cc2n(n1)CC(C)(C(=O)NC1CCCCC1)N(C)C2=O (stereo not drawn) | 4.71% | 3.52% | 7.43% | 5.53% | 3.72%
25 | CCOc1cc(C(=O)Nc2ccc(Cl)c(-c3nc4ccccc4[nH]3)c2)cc(OCC)c1OCC | 2.66% | -5.3% | 11.3% | -35.6% | -4.27%
26 | Cc1cc2c(cc3n2CC(C)(C(=O)NC2CCCCCC2)N(Cc2ccccn2)C3=O)o1 (stereo not drawn) | 1.33% | 0% | 1.96% | -2.85% | 1.54%
27 | Cc1cc(C)cc(N2C(=O)c3cc(-c4ccccc4)nn3CC2(C)C(=O)NCc2ccccc2)c1 (stereo not drawn) | -1.64% | 5.1% | 0.505% | -3% | -0.008%
28 | CC1(C(=O)NC2CCCCCC2)Cn2c(ccc2-c2ccco2)C(=O)N1CCc1ccco1 (stereo not drawn) | 0.063% | -2.72% | 5.73% | 2.51% | 3.97%
29 | CC1COC(Nc2ccc3ncnc(Nc4ccc(OCc5nccs5)c(Cl)c4)c3c2)=N1 (stereo not drawn) | -8.68% | 20.5% | -37.2% | -8.77% | 3.24%
30 | CC1(C(=O)NC2CCCCCCC2)Cn2c(cc3occc32)C(=O)N1CCCN1CCCCCC1 (stereo not drawn) | -1.42% | 2.84% | -4.63% | 16.4% | -1.24%
31 | CCC1CCCCN1CCCN1C(=O)c2cc3occc3n2CC1(C)C(=O)NC1CCC(C)CC1 (stereo not drawn) | 6.02% | 1.22% | -3.66% | 10.6% | 4.15%
32 | CCCn1c(=O)c2cc(Cl)ccc2n2c(SCC(=O)Nc3ccc4c(c3)OCCO4)nnc12 | -6.23% | 0% | 0.972% | -4.16% | 4.08%
33 | C=C1CCC(OC(C)=O)C2(C)CC3OC(=O)C(C)=C3CC12 (stereo not drawn) | 2.58% | 2.96% | 9.45% | -13.5% | -4.09%
34 | O=C(NCC1CCOC1)C1CCN(c2nc(-c3ccccc3)nc3c2CCC3)CC1 (stereo not drawn) | -3.34% | 0.817% | -2.1% | 0.792% | 0.38%
35 | O=C(c1coc(COc2ccc(F)cc2)n1)N1CCC(c2ccc(F)cc2)C1 (stereo not drawn) | -5.2% | -1.73% | -2.18% | -13.7% | 7.38%
36 | CCc1ccc(CNC(=O)c2cc3n(n2)CC(C)(C(=O)NC2CCCC2)N(C)C3=O)cc1 (stereo not drawn) | 1.54% | 1.85% | 6.54% | 2.07% | -2.23%
37 | O=C1CCCC2=C1C(c1ncccc1Br)N=C(Nc1nc3ccccc3o1)N2 (stereo not drawn) |  | 6.73% |  | -2.44% | 8.14%
38 | Cn1ccnc1CN[C@@H]1C[C@H](CO)[C@@H](O)[C@H]1O | -7.21% | -15.3% | -4.99% | -13.4% | -13.1%
39 | CN1C(=O)c2cc(C(=O)NCC3CCCO3)nn2CC1(C)C(=O)NC1CCCCCC1 (stereo not drawn) | 2.19% | 0% | 2.66% | 7.36% | 2.6%
40 | CC(=O)N1CCN(C(=O)c2ccc3oc(-c4cccnc4C)nc3c2)CC1 | -7.01% | -8.14% | -4.66% | -16.5% | -10.7%

Row | SMILES | activity change, negative = inhibition [1] | activity change, negative = inhibition [2] | activity change, negative = inhibition [3] | activity change, negative = inhibition [4] | activity change, negative = inhibition [5]
41 | COc1cccc(NC(=O)CCc2nnc3n(Cc4ccc(C)cc4)c(=O)c4ccccc4n23)c1 | -6.62% | 2.54% | -2.13% | -3.52% | -6.94%
42 | CCOC(=O)c1ccccc1NC(=O)N1Cc2c(sc3c2CCN(C)C3)-n2cccc2C1CC (stereo not drawn) | -6.7% | 4.74% | -1.12% | -5.59% | -0.059%
43 | O=C(NC1CCN(c2ccc3nnc(-c4ccccc4)n3n2)CC1)C1CCCC1 | -5.98% | -7.47% | -3.53% | -6.3% | -7.89%
44 | COc1cccc(CNC(=O)CCc2nnc3n(Cc4ccccc4)c(=O)c4ccccc4n23)c1 | -6.61% | 0.463% | 8.23% | 3.99% | 0.656%
45 | Cc1ccc(-c2ncc[nH]2)cc1NC(=O)c1ccc(OCc2ccccn2)cc1 | -7.03% | -4.87% | -9.06% | -25.7% | -12.2%
46 | COc1ccccc1CNC(=O)C1c2c(n(C)c3ccccc23)SCC(=O)N1Cc1cccnc1 (stereo not drawn) | 12.6% | 0.755% | 8.69% | 8.37% | 9.68%
47 | COc1ccc([C@H]2CN(C(=O)C3CCN(C(=O)N(C)C)CC3)C[C@@H]2N)cc1 | -3% | -6.24% | -0.685% | -5.63% | -2.02%
48 | CN1C(=O)c2cc3ccccc3n2CC1(C)C(=O)NCC(=O)NCc1ccccc1Cl (stereo not drawn) | -0.571% | 5.76% | 0.804% | 8.31% | -7.51%
49 | COc1cccc(N2C(=O)c3ccc(-c4ccco4)n3CC2(C)C(=O)NC2CCCC2)c1 (stereo not drawn) | -2.87% | 3.08% | -0.9% | 1.35% | -1.32%
50 | CCN1C(=O)c2c(C(=O)NCCc3ccc(OC)c(OC)c3)ncn2CC1(C)C(=O)NC1CCCC1 (stereo not drawn) | -5.82% | 0% | 7.52% | -1.06% | 2.57%
51 | CC1(C(=O)NCc2ccc(F)cc2)Cn2cnc(C(=O)Nc3ccc(F)cc3Cl)c2C(=O)N1C1CC1 (stereo not drawn) | 3.19% | 1.73% | 13% | 2.51% | 11%
52 | COC(=O)C1=COC(OC2OC(CO)C(O)C(O)C2O)C2C(C)C(OC(=O)/C=C/c3ccc(O)cc3)C(O)C12 (stereo not drawn) | -6.72% | -11.8% | 3.73% | -20.2% | -1.36%
53 | CCOc1cccc(C2c3cccn3-c3sc4c(c3CN2C(=O)NC(C)C)CCCC4)c1 (stereo not drawn) | -5.78% | 3.2% | -5.56% | -9.13% | -1.06%
54 | CC1CCN(c2nc3c(S(=O)(=O)c4ccccc4)nnn3c3ccc(Cl)cc23)CC1 | -5.32% | 4.56% | -2.26% | -5.21% | -5.49%
55 | CCc1ccccc1NS(=O)(=O)c1cc2c(cc1C)n(C)c(=O)n2C | -0.681% | 4.01% | -6.91% | -8.78% | -6.02%
56 | COc1cccc(-c2cc(C3CCN(S(=O)(=O)c4cccc(OC)c4)CC3)[nH]n2)c1 | 6.87% | 1.32% | 5.67% | 3.88% | 6.07%
57 | CCN(Cc1ccncc1)C(=O)c1coc(COc2cccc(C(F)(F)F)c2)n1 | -6.33% | -6.86% | -4.63% | -7.65% | 2.19%
58 | Cc1noc(C)c1-c1cnc(Nc2ccc(CN3CCN(C)CC3)cc2)c2c1CCO2 | -13.2% | -10.6% | -20.3% | -28.7% | -10.2%
59 | CCCC1c2ccc(C)n2CCN1C(=O)Nc1ccccc1C(=O)OC (stereo not drawn) | -3.16% | 2.62% | 0.999% | 2.08% | -0.132%
